Measured values from paper PMC9911399, “Two distinct binding modes provide the RNA-binding protein RbFox with extraordinary sequence specificity”.
Where a chain is given by its changes, count along the chain named. The list shows a part of the results.

T1: RBFOX1 RRM RbFoxmut (Fox-RRM*) (Homo sapiens, UniProt Q9NWB1 109-208, R118D;E147R;N151S;E152T)
T1 sequence: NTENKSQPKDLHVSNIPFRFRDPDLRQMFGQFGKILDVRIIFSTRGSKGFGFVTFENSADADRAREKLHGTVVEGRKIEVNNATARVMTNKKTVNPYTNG

B1: GCUUAUA (DNA:RNA)
RNA: GGGAGACCGGAAUUCAGAUUGUCCGCUUAUAUUAAAUCCCGUCGUAGCCACCA
DNA 1: CAATCTGAATTCCGGTCTCCC
DNA 2: TGGTGGCTACGACGGGATT
B2: CCUUCCG (DNA:RNA)
RNA: B1 RNA with G25C, A29C, U30C, A31G
DNA 1: CAATCTGAATTCCGGTCTCCC
DNA 2: TGGTGGCTACGACGGGATT
B3: CAAUGUC (DNA:RNA)
RNA: B1 RNA with G25C, C26A, U27A, A29G, A31C
DNA 1: CAATCTGAATTCCGGTCTCCC
DNA 2: TGGTGGCTACGACGGGATT
B4: ACGCCGA (DNA:RNA)
RNA: B1 RNA with G25A, U27G, U28C, A29C, U30G
DNA 1: CAATCTGAATTCCGGTCTCCC
DNA 2: TGGTGGCTACGACGGGATT
B5: CACUAAU (DNA:RNA)
RNA: B1 RNA with G25C, C26A, U27C, U30A, A31U
DNA 1: CAATCTGAATTCCGGTCTCCC
DNA 2: TGGTGGCTACGACGGGATT
B6: AUCUCCG (DNA:RNA)
RNA: B1 RNA with G25A, C26U, U27C, A29C, U30C, A31G
DNA 1: CAATCTGAATTCCGGTCTCCC
DNA 2: TGGTGGCTACGACGGGATT
B7: CUUUCCG (DNA:RNA)
RNA: B1 RNA with G25C, C26U, A29C, U30C, A31G
DNA 1: CAATCTGAATTCCGGTCTCCC
DNA 2: TGGTGGCTACGACGGGATT
B8: UGGCACA (DNA:RNA)
RNA: B1 RNA with G25U, C26G, U27G, U28C, U30C
DNA 1: CAATCTGAATTCCGGTCTCCC
DNA 2: TGGTGGCTACGACGGGATT
B9: GCUUUCA (DNA:RNA)
RNA: B1 RNA with A29U, U30C
DNA 1: CAATCTGAATTCCGGTCTCCC
DNA 2: TGGTGGCTACGACGGGATT
B10: GCAGCGG (DNA:RNA)
RNA: B1 RNA with U27A, U28G, A29C, U30G, A31G
DNA 1: CAATCTGAATTCCGGTCTCCC
DNA 2: TGGTGGCTACGACGGGATT
B11: CGAAUGU (ssRNA)
RNA: CGAAUGU
B12: GACUCCG (DNA:RNA)
RNA: B1 RNA with C26A, U27C, A29C, U30C, A31G
DNA 1: CAATCTGAATTCCGGTCTCCC
DNA 2: TGGTGGCTACGACGGGATT
B13: UGUGCUA (DNA:RNA)
RNA: B1 RNA with G25U, C26G, U28G, A29C
DNA 1: CAATCTGAATTCCGGTCTCCC
DNA 2: TGGTGGCTACGACGGGATT
B14: GCUUACA (DNA:RNA)
RNA: B1 RNA with U30C
DNA 1: CAATCTGAATTCCGGTCTCCC
DNA 2: TGGTGGCTACGACGGGATT
B15: AGAUAAC (DNA:RNA)
RNA: B1 RNA with G25A, C26G, U27A, U30A, A31C
DNA 1: CAATCTGAATTCCGGTCTCCC
DNA 2: TGGTGGCTACGACGGGATT
B16: GCUCACG (DNA:RNA)
RNA: B1 RNA with U28C, U30C, A31G
DNA 1: CAATCTGAATTCCGGTCTCCC
DNA 2: TGGTGGCTACGACGGGATT
B17: GCUACUU (DNA:RNA)
RNA: B1 RNA with U28A, A29C, A31U
DNA 1: CAATCTGAATTCCGGTCTCCC
DNA 2: TGGTGGCTACGACGGGATT
B18: CCCUUGU (DNA:RNA)
RNA: B1 RNA with G25C, U27C, A29U, U30G, A31U
DNA 1: CAATCTGAATTCCGGTCTCCC
DNA 2: TGGTGGCTACGACGGGATT
B19: CCGUUGC (DNA:RNA)
RNA: B1 RNA with G25C, U27G, A29U, U30G, A31C
DNA 1: CAATCTGAATTCCGGTCTCCC
DNA 2: TGGTGGCTACGACGGGATT
B20: AGAAACC (DNA:RNA)
RNA: B1 RNA with G25A, C26G, U27A, U28A, U30C, A31C
DNA 1: CAATCTGAATTCCGGTCTCCC
DNA 2: TGGTGGCTACGACGGGATT
B21: GUACUUG (DNA:RNA)
RNA: B1 RNA with C26U, U27A, U28C, A29U, A31G
DNA 1: CAATCTGAATTCCGGTCTCCC
DNA 2: TGGTGGCTACGACGGGATT
B22: CCUGGAC (DNA:RNA)
RNA: B1 RNA with G25C, U28G, A29G, U30A, A31C
DNA 1: CAATCTGAATTCCGGTCTCCC
DNA 2: TGGTGGCTACGACGGGATT
B23: UAGAUAA (DNA:RNA)
RNA: B1 RNA with G25U, C26A, U27G, U28A, A29U, U30A
DNA 1: CAATCTGAATTCCGGTCTCCC
DNA 2: TGGTGGCTACGACGGGATT
B24: UAAUAAA (DNA:RNA)
RNA: B1 RNA with G25U, C26A, U27A, U30A
DNA 1: CAATCTGAATTCCGGTCTCCC
DNA 2: TGGTGGCTACGACGGGATT
B25: AGGGUUG (DNA:RNA)
RNA: B1 RNA with G25A, C26G, U27G, U28G, A29U, A31G
DNA 1: CAATCTGAATTCCGGTCTCCC
DNA 2: TGGTGGCTACGACGGGATT
B26: AUGGUGC (DNA:RNA)
RNA: GGGAGACCGGAAUUCAGAUUGUCCAUGGUGCUUAAAUCCCGUCGUAGCCACCA
DNA 1: CAATCTGAATTCCGGTCTCCC
DNA 2: TGGTGGCTACGACGGGATT
B27: CACGAUU (DNA:RNA)
RNA: B1 RNA with G25C, C26A, U27C, U28G, A31U
DNA 1: CAATCTGAATTCCGGTCTCCC
DNA 2: TGGTGGCTACGACGGGATT
B28: UGAAGUC (DNA:RNA)
RNA: B26 RNA with A25U, U26G, G27A, G28A, U29G, G30U
DNA 1: CAATCTGAATTCCGGTCTCCC
DNA 2: TGGTGGCTACGACGGGATT
B29: UCCACGU (DNA:RNA)
RNA: B26 RNA with A25U, U26C, G27C, G28A, U29C, C31U
DNA 1: CAATCTGAATTCCGGTCTCCC
DNA 2: TGGTGGCTACGACGGGATT
B30: GAUCCAG (DNA:RNA)
RNA: B1 RNA with C26A, U28C, A29C, U30A, A31G
DNA 1: CAATCTGAATTCCGGTCTCCC
DNA 2: TGGTGGCTACGACGGGATT
B31: CUCAUUG (DNA:RNA)
RNA: B26 RNA with A25C, G27C, G28A, G30U, C31G
DNA 1: CAATCTGAATTCCGGTCTCCC
DNA 2: TGGTGGCTACGACGGGATT

Legend:
[1] = molecular target: T1, RBFOX1 RRM RbFoxmut (Fox-RRM*); test: EMSA; HiTS-Eq, 1 nM pool, 10 min; buffer printed only for the single-RNA assays: 10 mM Tris pH 7.5, 150 mM NaCl, 3.4 mM EDTA, 0.001% NP-40, 30 C; conditions: tags: His6 N-terminal (pET28a); label: 5' 32P
Summary of the method: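 Purified wild-type or mutant RbFox RRM at increasing concentrations was equilibrated with 1 nM of 5′-radiolabelled RNA carrying 7 randomized nucleotides for 10 min in 50 µL. Unbound RNA was separated by 8% native PAGE and sequenced. Relative association constants came from read-count changes of each RNA species compared with the control reaction, normalised to the cognate motif.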

[2] = molecular target: T1, RBFOX1 RRM RbFoxmut (Fox-RRM*); test: competition; 10 mM Tris pH 7.5, 150 mM NaCl, 3.4 mM EDTA, 0.001% NP-40, 30 C; conditions: tags: His6 N-terminal (pET28a)

Row | Binder | binding signal [1] | binding signal [2] [nM]
1 | B1 | 0.119 KA relative to UGCAUGU | 
2 | B2 | 0.088 KA relative to UGCAUGU | 
3 | B3 | 0.185 KA relative to UGCAUGU | 
4 | B4 | 0.0979 KA relative to UGCAUGU | 
5 | B5 | 0.0911 KA relative to UGCAUGU | 
6 | B6 | 0.136 KA relative to UGCAUGU | 
7 | B7 | 0.0611 KA relative to UGCAUGU | 
8 | B8 | 0.0913 KA relative to UGCAUGU | 
9 | B9 | 0.08 KA relative to UGCAUGU | 
10 | B10 | 0.0958 KA relative to UGCAUGU | 
11 | B11 |  | 31
12 | B12 | 0.0876 KA relative to UGCAUGU | 
13 | B13 | 0.123 KA relative to UGCAUGU | 
14 | B14 | 0.103 KA relative to UGCAUGU | 
15 | B15 | 0.083 KA relative to UGCAUGU | 
16 | B16 | 0.106 KA relative to UGCAUGU | 

Row | Binder | binding signal [1] | binding signal [2] [nM]
17 | B17 | 0.0978 KA relative to UGCAUGU | 
18 | B18 | 0.106 KA relative to UGCAUGU | 
19 | B19 | 0.11 KA relative to UGCAUGU | 
20 | B20 | 0.0413 KA relative to UGCAUGU | 
21 | B21 | 0.113 KA relative to UGCAUGU | 
22 | B22 | 0.103 KA relative to UGCAUGU | 
23 | B23 | 0.0537 KA relative to UGCAUGU | 
24 | B24 | 0.0817 KA relative to UGCAUGU | 
25 | B25 | 0.578 KA relative to UGCAUGU | 
26 | B26 | 0.153 KA relative to UGCAUGU | 
27 | B27 | 0.0594 KA relative to UGCAUGU | 
28 | B28 | 0.0792 KA relative to UGCAUGU | 
29 | B29 | 0.0978 KA relative to UGCAUGU | 
30 | B30 | 0.0769 KA relative to UGCAUGU | 
31 | B31 | 0.13 KA relative to UGCAUGU | 
